Test results reported in the supplement of paper PMC9927326.

How the values were obtained:
Assay in all cases: CLSI broth microdilution.
itraconazole = compound: CCC(C)n1ncn(-c2ccc(N3CCN(c4ccc(OCC5COC(Cn6cncn6)(c6ccc(Cl)cc6Cl)O5)cc4)CC3)cc2)c1=O [itraconazole]
micafungin = compound: CCCCCOc1ccc(-c2cc(-c3ccc(C(=O)N[C@H]4C[C@@H](O)[C@@H](O)NC(=O)[C@@H]5[C@@H](O)[C@@H](C)CN5C(=O)[C@H]([C@H](O)CC(N)=O)NC(=O)[C@H]([C@H](O)[C@@H](O)c5ccc(O)c(OS(=O)(=O)O)c5)NC(=O)[C@@H]5C[C@@H](O)CN5C(=O)[C@H]([C@@H](C)O)NC4=O)cc3)no2)cc1 [micafungin]
anidulafungin = compound: CCCCCOc1ccc(-c2ccc(-c3ccc(C(=O)N[C@H]4C[C@@H](O)[C@@H](O)NC(=O)[C@@H]5[C@@H](O)[C@@H](C)CN5C(=O)[C@H]([C@@H](C)O)NC(=O)[C@H]([C@H](O)[C@@H](O)c5ccc(O)cc5)NC(=O)[C@@H]5C[C@@H](O)CN5C(=O)[C@H]([C@@H](C)O)NC4=O)cc3)cc2)cc1 [anidulafungin]
posaconazole = compound: CC[C@@H]([C@H](C)O)n1ncn(-c2ccc(N3CCN(c4ccc(OC[C@@H]5CO[C@@](Cn6cncn6)(c6ccc(F)cc6F)C5)cc4)CC3)cc2)c1=O [posaconazole]
caspofungin = compound: CC[C@H](C)C[C@H](C)CCCCCCCCC(=O)N[C@H]1C[C@@H](O)[C@@H](NCCN)NC(=O)[C@@H]2[C@@H](O)CCN2C(=O)[C@H]([C@H](O)CCN)NC(=O)[C@H]([C@H](O)[C@@H](O)c2ccc(O)cc2)NC(=O)[C@@H]2C[C@@H](O)CN2C(=O)[C@H]([C@@H](C)O)NC1=O [caspofungin]
voriconazole = compound: C[C@@H](c1ncncc1F)[C@](O)(Cn1cncn1)c1ccc(F)cc1F [voriconazole]
amphotericin B = compound: C[C@@H]1[C@H](O)[C@@H](C)/C=C/C=C/C=C/C=C/C=C/C=C/C=C/[C@H](O[C@@H]2O[C@H](C)[C@@H](O)[C@H](N)[C@@H]2O)C[C@@H]2O[C@](O)(C[C@@H](O)C[C@@H](O)[C@H](O)CC[C@@H](O)C[C@@H](O)CC(=O)O[C@H]1C)C[C@H](O)[C@H]2C(=O)O [amphotericin B]
flucytosine = compound: Nc1[nH]c(=O)ncc1F [flucytosine]
fluconazole = compound: OC(Cn1cncn1)(Cn1cncn1)c1ccc(F)cc1F [fluconazole]

Test System: Candida albicans isolate 31 (Erg11p: E266D, Fur1p: WT, Tac1p: N896S,A377V,F189S,N174D,M170I,M170V,K87N,T9A)
- MIC (itraconazole): 0.12 mg/L [S]
- MIC (micafungin): 0.015 mg/L [S]
- MIC (anidulafungin): 0.06 mg/L [S]
- MIC (posaconazole): 0.12 mg/L [R]
- MIC (caspofungin): 0.06 mg/L [S]
- MIC (voriconazole): ≤ 0.008 mg/L [S]
- MIC (amphotericin B): 1 mg/L [S]
- MIC (flucytosine): ≤ 0.06 mg/L [S]
- MIC (fluconazole): 0.5 mg/L [S]

Test System: Candida albicans isolate 42 (Erg11p: WT, Fur1p: WT, Tac1p: N896S)
- MIC (itraconazole): 0.03 mg/L [S]
- MIC (micafungin): 0.015 mg/L [S]
- MIC (anidulafungin): ≤ 0.015 mg/L [S]
- MIC (posaconazole): 0.03 mg/L [S]
- MIC (caspofungin): 0.03 mg/L [S]
- MIC (voriconazole): ≤ 0.008 mg/L [S]
- MIC (amphotericin B): 0.25 mg/L [S]
- MIC (flucytosine): ≤ 0.06 mg/L [S]
- MIC (fluconazole): 0.5 mg/L [S]

Test System: Candida albicans isolate 224 (Erg11p: V437I,E266D, Fur1p: WT, Tac1p: S937L,I895T,L695F,I558V,F189S,L131I)
- MIC (itraconazole): ≤ 0.015 mg/L [S]
- MIC (micafungin): ≤ 0.008 mg/L [S]
- MIC (anidulafungin): ≤ 0.015 mg/L [S]
- MIC (posaconazole): 0.015 mg/L [S]
- MIC (caspofungin): 0.03 mg/L [S]
- MIC (voriconazole): ≤ 0.008 mg/L [S]
- MIC (amphotericin B): 0.25 mg/L [S]
- MIC (flucytosine): ≤ 0.06 mg/L [S]
- MIC (fluconazole): 0.25 mg/L [S]

Test System: Candida albicans isolate 308 (Erg11p: WT, Fur1p: WT, Tac1p: N896S)
- MIC (itraconazole): 0.06 mg/L [S]
- MIC (micafungin): ≤ 0.008 mg/L [S]
- MIC (anidulafungin): 0.03 mg/L [S]
- MIC (posaconazole): 0.015 mg/L [S]
- MIC (caspofungin): 0.03 mg/L [S]
- MIC (voriconazole): ≤ 0.008 mg/L [S]
- MIC (amphotericin B): 0.5 mg/L [S]
- MIC (flucytosine): ≤ 0.06 mg/L [S]
- MIC (fluconazole): 0.25 mg/L [S]

Test System: Candida albicans isolate 11 (Erg11p: V488I,E266D, Fur1p: WT, Tac1p: N896S,I895T)
- MIC (itraconazole): 0.03 mg/L [S]
- MIC (micafungin): 0.015 mg/L [S]
- MIC (anidulafungin): 0.06 mg/L [S]
- MIC (posaconazole): 0.015 mg/L [S]
- MIC (caspofungin): 0.06 mg/L [S]
- MIC (voriconazole): ≤ 0.008 mg/L [S]
- MIC (amphotericin B): 0.25 mg/L [S]
- MIC (flucytosine): ≤ 0.06 mg/L [S]
- MIC (fluconazole): 0.5 mg/L [S]

Test System: Candida albicans isolate 91 (Erg11p: K342R,E266D, Fur1p: WT, Tac1p: I558V,A377V,F189S,N174D,M170I,K87N)
- MIC (itraconazole): 0.03 mg/L [S]
- MIC (micafungin): 0.015 mg/L [S]
- MIC (anidulafungin): 0.06 mg/L [S]
- MIC (posaconazole): 0.015 mg/L [S]
- MIC (caspofungin): 0.03 mg/L [S]
- MIC (voriconazole): ≤ 0.008 mg/L [S]
- MIC (amphotericin B): 0.25 mg/L [S]
- MIC (flucytosine): ≤ 0.06 mg/L [S]
- MIC (fluconazole): 0.25 mg/L [S]

Test System: Candida albicans isolate 155 (Erg11p: WT, Fur1p: WT, Tac1p: I558V,A377V,F189S,N174D,M170I)
- MIC (itraconazole): 0.03 mg/L [S]
- MIC (micafungin): 0.015 mg/L [S]
- MIC (anidulafungin): 0.03 mg/L [S]
- MIC (posaconazole): 0.015 mg/L [S]
- MIC (caspofungin): 0.03 mg/L [S]
- MIC (voriconazole): ≤ 0.008 mg/L [S]
- MIC (amphotericin B): 0.5 mg/L [S]
- MIC (flucytosine): ≤ 0.06 mg/L [S]
- MIC (fluconazole): 0.5 mg/L [S]

Test System: Candida albicans isolate 350 (Erg11p: WT, Fur1p: WT, Tac1p: I558V,A377V,F189S,N174D,M170I,K87N)
- MIC (itraconazole): 0.06 mg/L [S]
- MIC (micafungin): ≤ 0.008 mg/L [S]
- MIC (anidulafungin): ≤ 0.015 mg/L [S]
- MIC (posaconazole): 0.03 mg/L [S]
- MIC (caspofungin): 0.06 mg/L [S]
- MIC (voriconazole): 0.015 mg/L [S]
- MIC (amphotericin B): 1 mg/L [S]
- MIC (flucytosine): ≤ 0.06 mg/L [S]
- MIC (fluconazole): 1 mg/L [S]

Test System: Candida albicans isolate 330 (Erg11p: D153E, Fur1p: WT, Tac1p: N896S)
- MIC (itraconazole): 0.03 mg/L [S]
- MIC (micafungin): 0.015 mg/L [S]
- MIC (anidulafungin): ≤ 0.015 mg/L [S]
- MIC (posaconazole): 0.015 mg/L [S]
- MIC (caspofungin): 0.015 mg/L [S]
- MIC (voriconazole): ≤ 0.008 mg/L [S]
- MIC (amphotericin B): 0.25 mg/L [S]
- MIC (flucytosine): ≤ 0.06 mg/L [S]
- MIC (fluconazole): 0.5 mg/L [S]

Test System: Candida albicans isolate 352 (Erg11p: V488I,E266D, Fur1p: WT, Tac1p: N896S,M170V,S108N)
- MIC (itraconazole): ≤ 0.015 mg/L [S]
- MIC (micafungin): 0.015 mg/L [S]
- MIC (anidulafungin): ≤ 0.015 mg/L [S]
- MIC (posaconazole): 0.015 mg/L [S]
- MIC (caspofungin): 0.015 mg/L [S]
- MIC (voriconazole): ≤ 0.008 mg/L [S]
- MIC (amphotericin B): 0.5 mg/L [S]
- MIC (flucytosine): ≤ 0.06 mg/L [S]
- MIC (fluconazole): 0.5 mg/L [S]

Test System: Candida albicans isolate 132 (Erg11p: WT, Fur1p: WT, Tac1p: WT)
- MIC (itraconazole): 0.03 mg/L [S]
- MIC (micafungin): 0.015 mg/L [S]
- MIC (anidulafungin): 0.03 mg/L [S]
- MIC (posaconazole): 0.015 mg/L [S]
- MIC (caspofungin): 0.03 mg/L [S]
- MIC (voriconazole): ≤ 0.008 mg/L [S]
- MIC (amphotericin B): 0.25 mg/L [S]
- MIC (flucytosine): ≤ 0.06 mg/L [S]
- MIC (fluconazole): 0.5 mg/L [S]

Test System: Candida albicans isolate 9 (Erg11p: WT, Fur1p: WT, Tac1p: WT)
- MIC (itraconazole): 0.03 mg/L [S]
- MIC (micafungin): 0.015 mg/L [S]
- MIC (anidulafungin): 0.03 mg/L [S]
- MIC (posaconazole): 0.015 mg/L [S]
- MIC (caspofungin): 0.03 mg/L [S]
- MIC (voriconazole): ≤ 0.008 mg/L [S]
- MIC (amphotericin B): 0.25 mg/L [S]
- MIC (flucytosine): ≤ 0.06 mg/L [S]
- MIC (fluconazole): 0.5 mg/L [S]

Test System: Candida albicans isolate 278 (Erg11p: V488I,E266D, Fur1p: WT, Tac1p: N896S,I895T)
- MIC (itraconazole): 0.06 mg/L [S]
- MIC (micafungin): ≤ 0.008 mg/L [S]
- MIC (anidulafungin): 0.12 mg/L [S]
- MIC (posaconazole): 0.03 mg/L [S]
- MIC (caspofungin): 0.06 mg/L [S]
- MIC (voriconazole): 0.015 mg/L [S]
- MIC (amphotericin B): 0.5 mg/L [S]
- MIC (flucytosine): ≤ 0.06 mg/L [S]
- MIC (fluconazole): 0.5 mg/L [S]

Test System: Candida albicans isolate 245 (Erg11p: WT, Fur1p: WT, Tac1p: N896S)
- MIC (itraconazole): ≤ 0.015 mg/L [S]
- MIC (micafungin): 0.015 mg/L [S]
- MIC (anidulafungin): ≤ 0.015 mg/L [S]
- MIC (posaconazole): 0.015 mg/L [S]
- MIC (caspofungin): 0.015 mg/L [S]
- MIC (voriconazole): ≤ 0.008 mg/L [S]
- MIC (amphotericin B): 0.5 mg/L [S]
- MIC (flucytosine): ≤ 0.06 mg/L [S]
- MIC (fluconazole): ≤ 0.12 mg/L [S]

Test System: Candida albicans isolate 264 (Erg11p: E266D,D153E, Fur1p: WT, Tac1p: N896S,I558V,A377V,F189S)
- MIC (itraconazole): ≤ 0.015 mg/L [S]
- MIC (micafungin): 0.03 mg/L [S]
- MIC (anidulafungin): 0.06 mg/L [S]
- MIC (posaconazole): ≤ 0.008 mg/L [S]
- MIC (caspofungin): 0.015 mg/L [S]
- MIC (voriconazole): ≤ 0.008 mg/L [S]
- MIC (amphotericin B): 0.25 mg/L [S]
- MIC (flucytosine): ≤ 0.06 mg/L [S]
- MIC (fluconazole): 1 mg/L [S]

Test System: Candida albicans isolate 298 (Erg11p: E266D,G129A, Fur1p: WT, Tac1p: R869Q,L695F,I558V,A377V,F189S,M170V,L131I)
- MIC (itraconazole): 0.12 mg/L [S]
- MIC (micafungin): 0.03 mg/L [S]
- MIC (anidulafungin): 0.12 mg/L [S]
- MIC (posaconazole): 0.06 mg/L [S]
- MIC (caspofungin): 0.12 mg/L [S]
- MIC (voriconazole): 0.06 mg/L [S]
- MIC (amphotericin B): 0.5 mg/L [S]
- MIC (flucytosine): 0.12 mg/L [S]
- MIC (fluconazole): 1 mg/L [S]

MIC of clinical C. albicans isolates, CLSI broth microdilution (ranges and time not stated); higher = less susceptible. Call: susceptible or wild type [S] / resistant or non-wild type [R] by CLSI breakpoints or epidemiological cut-offs; intermediate and dose-dependent carry no call here (the paper groups them with resistant). '<=' and '>=' mark each drug's lowest and highest value, inferred; the source prints them plain. Isolates are numbered anew.
